IC50 is the fitted dose that halves viability relative to control wells, and lower means more sensitive; a fit beyond the top or the lowest dose is shown as a bound at that dose. AUC is the area under the same curve over the 256-fold range up to the top dose, as a fraction; values near 1 show little effect. For some assays here: Where the top dose is marked as inferred, it is not printed in the source and was worked back from the curve model.
What was measured:
Experiment in all cases: Viability of human cancer cell lines after 72 h of drug (GDSC screen)
AG-014699 = compound: CNCc1ccc(-c2[nH]c3cc(F)cc4c3c2CCNC4=O)cc1 [AG-014699]; conditions: top dose 5 µM; top dose inferred
Method: (§1)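 Human cancer cell lines in 384-well plates, medium with 10% serum, drug for 72 h over a 256-fold dose range (nine 2-fold or five 4-fold steps up to the top dose). Adherent lines were fixed and stained with the nucleic acid dye Syto60, suspension lines read with resazurin; signal relative to control wells, capped at 0 and 100%. One two-parameter sigmoid per drug and line, fitted in a mixed model over all curves with the slope shared within a line.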

Gefitinib = compound: COc1cc2ncnc(Nc3ccc(F)c(Cl)c3)c2cc1OCCCN1CCOCC1 [Gefitinib]; conditions: top dose 0.5 µM
Method: as §1

EHT 1864 = compound: O=c1cc(CN2CCOCC2)occ1OCCCCCSc1ccnc2cc(C(F)(F)F)ccc12 [EHT 1864]; conditions: top dose 10 µM; top dose inferred
Method: as §1

NU-7441 = compound: O=c1cc(N2CCOCC2)oc2c(-c3cccc4c3sc3ccccc34)cccc12 [NU-7441]; conditions: top dose 2 µM; top dose inferred
Method: as §1

QL-XI-92 = compound: C=CC(=O)Nc1cc(NC(=O)c2ccc(C)c(NC(=O)c3ccno3)c2)cc(C(F)(F)F)c1 [QL-XI-92]; conditions: top dose 10.24 µM; top dose inferred
Method: as §1

Vinorelbine = compound: CCC1=C[C@@H]2CN(C1)Cc1c([nH]c3ccccc13)[C@@](C(=O)OC)(c1cc3c(cc1OC)N(C)[C@H]1[C@@](O)(C(=O)OC)[C@H](OC(C)=O)[C@]4(CC)C=CCN5CC[C@]31[C@@H]54)C2 [Vinorelbine]; conditions: top dose 0.064 µM; top dose inferred
Method: as §1

XL-184 = compound: COc1cc2nccc(Oc3ccc(NC(=O)C4(C(=O)Nc5ccc(F)cc5)CC4)cc3)c2cc1OC [XL-184]; conditions: top dose 5.12 µM; top dose inferred
Method: as §1

WHI-P97 = compound: COc1cc2ncnc(Nc3cc(Br)c(O)c(Br)c3)c2cc1OC [WHI-P97]; conditions: top dose 10.24 µM; top dose inferred
Method: as §1

Phenformin = compound: N=C(N)NC(=N)NCCc1ccccc1 [Phenformin]; conditions: top dose 4000 µM; top dose inferred
Method: as §1

## NCI-H146 (small cell lung carcinoma, suspension)
AG-014699
  AUC: 0.987
  IC50: > 5 µM
Gefitinib
  AUC: 0.992
  IC50: > 0.5 µM
EHT 1864
  AUC: 0.99
  IC50: > 10 µM
NU-7441
  AUC: 0.981
  IC50: > 2 µM

## NCI-H508 (large intestine, semi-adherent)
AG-014699
  AUC: 0.904
  IC50: > 5 µM
Gefitinib
  AUC: 0.719
  IC50: 0.203 µM
EHT 1864
  AUC: 0.944
  IC50: > 10 µM
NU-7441
  AUC: 0.833
  IC50: > 2 µM

## NCI-H835 (lung carcinoid, suspension)
AG-014699
  AUC: 0.991
  IC50: > 5 µM
Gefitinib
  AUC: 0.988
  IC50: > 0.5 µM
EHT 1864
  AUC: 0.973
  IC50: > 10 µM
NU-7441
  AUC: 0.991
  IC50: > 2 µM

## NCI-H929 (myeloma, suspension)
AG-014699
  AUC: 0.99
  IC50: > 5 µM
Gefitinib
  AUC: 0.96
  IC50: > 0.5 µM
EHT 1864
  AUC: 0.946
  IC50: > 10 µM
NU-7441
  AUC: 0.836
  IC50: 1.06 µM

## NCI-H1105 (small cell lung carcinoma, suspension)
Gefitinib
  AUC: 0.993
  IC50: > 0.5 µM
EHT 1864
  AUC: 0.993
  IC50: > 10 µM
NU-7441
  AUC: 0.993
  IC50: > 2 µM

## NCI-H1341 (small cell lung carcinoma, suspension)
AG-014699
  AUC: 0.992
  IC50: > 5 µM
Gefitinib
  AUC: 0.989
  IC50: > 0.5 µM
EHT 1864
  AUC: 0.985
  IC50: > 10 µM
NU-7441
  AUC: 0.99
  IC50: > 2 µM

## NCI-N87 (stomach, adherent)
AG-014699
  AUC: 0.957
  IC50: > 5 µM
Gefitinib
  AUC: 0.975
  IC50: > 0.5 µM
EHT 1864
  AUC: 0.933
  IC50: > 10 µM
NU-7441
  AUC: 0.974
  IC50: > 2 µM

## OCI-LY7 (B-cell lymphoma, suspension)
AG-014699
  AUC: 0.995
  IC50: > 5 µM
Gefitinib
  AUC: 0.991
  IC50: > 0.5 µM
EHT 1864
  AUC: 0.94
  IC50: 8.78 µM
NU-7441
  AUC: 0.896
  IC50: 1.23 µM

## PWR-1E (prostate, adherent)
AG-014699
  AUC: 0.976
  IC50: > 5 µM
Gefitinib
  AUC: 0.983
  IC50: > 0.5 µM
EHT 1864
  AUC: 0.987
  IC50: > 10 µM
NU-7441
  AUC: 0.962
  IC50: > 2 µM

## RCH-ACV (B-cell leukaemia, suspension)
AG-014699
  AUC: 0.952
  IC50: > 5 µM
Gefitinib
  AUC: 0.982
  IC50: > 0.5 µM
EHT 1864
  AUC: 0.959
  IC50: > 10 µM
NU-7441
  AUC: 0.898
  IC50: 1.72 µM

## RH-18 (rhabdomyosarcoma, adherent)
AG-014699
  AUC: 0.947
  IC50: > 5 µM
Gefitinib
  AUC: 0.966
  IC50: > 0.5 µM
EHT 1864
  AUC: 0.95
  IC50: > 10 µM
NU-7441
  AUC: 0.888
  IC50: > 2 µM

## SK-GT-2 (stomach, adherent)
AG-014699
  AUC: 0.986
  IC50: > 5 µM
Gefitinib
  AUC: 0.933
  IC50: > 0.5 µM
EHT 1864
  AUC: 0.933
  IC50: > 10 µM
NU-7441
  AUC: 0.968
  IC50: > 2 µM

## SK-MEL-31 (melanoma, adherent)
AG-014699
  AUC: 0.985
  IC50: > 5 µM
Gefitinib
  AUC: 0.983
  IC50: > 0.5 µM
EHT 1864
  AUC: 0.967
  IC50: > 10 µM
NU-7441
  AUC: 0.969
  IC50: > 2 µM

## SUP-B8 (B-cell leukaemia, suspension)
AG-014699
  AUC: 0.989
  IC50: > 5 µM
Gefitinib
  AUC: 0.989
  IC50: > 0.5 µM
EHT 1864
  AUC: 0.933
  IC50: > 10 µM
NU-7441
  AUC: 0.898
  IC50: > 2 µM

## SW1990 (pancreas, adherent)
QL-XI-92
  AUC: 0.974
  IC50: > 10.2 µM
Vinorelbine
  AUC: 0.836
  IC50: 0.0536 µM
AG-014699
  AUC: 0.985
  IC50: > 5 µM
XL-184
  AUC: 0.985
  IC50: > 5.12 µM
WHI-P97
  AUC: 0.974
  IC50: > 10.2 µM
Gefitinib
  AUC: 0.939
  IC50: > 0.5 µM
Phenformin
  AUC: 0.909
  IC50: > 4000 µM
EHT 1864
  AUC: 0.972
  IC50: > 10 µM

## TC-YIK (cervix, suspension)
AG-014699
  AUC: 0.991
  IC50: > 5 µM
Gefitinib
  AUC: 0.984
  IC50: > 0.5 µM
EHT 1864
  AUC: 0.915
  IC50: > 10 µM
NU-7441
  AUC: 0.97
  IC50: > 2 µM

## U-266 (myeloma, semi-adherent)
Gefitinib
  AUC: 0.971
  IC50: > 0.5 µM
NU-7441
  AUC: 0.983
  IC50: > 2 µM

## UM-UC-3 (bladder, adherent)
QL-XI-92
  AUC: 0.899
  IC50: > 10.2 µM
Vinorelbine
  AUC: 0.711
  IC50: 0.0151 µM
AG-014699
  AUC: 0.971
  IC50: > 5 µM
XL-184
  AUC: 0.896
  IC50: > 5.12 µM
WHI-P97
  AUC: 0.93
  IC50: > 10.2 µM
Gefitinib
  AUC: 0.975
  IC50: > 0.5 µM
Phenformin
  AUC: 0.667
  IC50: 707 µM
EHT 1864
  AUC: 0.926
  IC50: > 10 µM

## UMC-11 (lung carcinoid, adherent)
QL-XI-92
  AUC: 0.974
  IC50: > 10.2 µM
Vinorelbine
  AUC: 0.883
  IC50: 0.0559 µM
AG-014699
  AUC: 0.988
  IC50: > 5 µM
XL-184
  AUC: 0.914
  IC50: > 5.12 µM
WHI-P97
  AUC: 0.979
  IC50: > 10.2 µM
Gefitinib
  AUC: 0.975
  IC50: > 0.5 µM
Phenformin
  AUC: 0.54
  IC50: 317 µM
EHT 1864
  AUC: 0.908
  IC50: > 10 µM

## VMRC-LCD (lung adenocarcinoma, adherent)
AG-014699
  AUC: 0.992
  IC50: > 5 µM
Gefitinib
  AUC: 0.992
  IC50: > 0.5 µM
EHT 1864
  AUC: 0.91
  IC50: > 10 µM
NU-7441
  AUC: 0.984
  IC50: > 2 µM

## VMRC-MELG (melanoma, adherent)
QL-XI-92
  AUC: 0.982
  IC50: > 10.2 µM
Vinorelbine
  AUC: 0.969
  IC50: > 0.064 µM
AG-014699
  AUC: 0.989
  IC50: > 5 µM
XL-184
  AUC: 0.813
  IC50: 2.92 µM
WHI-P97
  AUC: 0.877
  IC50: > 10.2 µM
Gefitinib
  AUC: 0.987
  IC50: > 0.5 µM
Phenformin
  AUC: 0.857
  IC50: 3480 µM
EHT 1864
  AUC: 0.977
  IC50: > 10 µM

## WM278 (melanoma, adherent)
QL-XI-92
  AUC: 0.98
  IC50: > 10.2 µM
Vinorelbine
  AUC: 0.803
  IC50: 0.0364 µM
AG-014699
  AUC: 0.898
  IC50: > 5 µM
XL-184
  AUC: 0.912
  IC50: > 5.12 µM
WHI-P97
  AUC: 0.922
  IC50: > 10.2 µM
Gefitinib
  AUC: 0.98
  IC50: > 0.5 µM
Phenformin
  AUC: 0.843
  IC50: 3390 µM
EHT 1864
  AUC: 0.974
  IC50: > 10 µM

## ZR-75-30 (breast, adherent)
AG-014699
  AUC: 0.983
  IC50: > 5 µM
Gefitinib
  AUC: 0.98
  IC50: > 0.5 µM
EHT 1864
  AUC: 0.921
  IC50: > 10 µM
NU-7441
  AUC: 0.981
  IC50: > 2 µM

Reference: the supplement of paper PMC4967469
